According to PubChem BioAssay AID485273 (Sanford-Burnham Center for Chemical Genomics, 2010):
Hit rate of the full screen: of about 330,000 compounds, about 1,500 (0.45%) were called active. The inconclusive results got no clear call from the source; some entries with a clear call stand among them for comparison. Cut-off read from the data, not from the text of the source: active = inhibition above about 45% (passing the limit was not always enough); inconclusive = no clear call, values can overlap the other calls.

Target: Ubiquitin-conjugating enzyme E2 N (Homo sapiens) (UniProt P61088)
Experiment: UBC13 polyubiquitin chain formation inhibitors, primary screen, biochemical, TR-FRET, uHTS (AID 485273)
Conditions: at 20 µM, hits give high values

Sequence of UniProt P61088 (P61088 whole entry, looked up): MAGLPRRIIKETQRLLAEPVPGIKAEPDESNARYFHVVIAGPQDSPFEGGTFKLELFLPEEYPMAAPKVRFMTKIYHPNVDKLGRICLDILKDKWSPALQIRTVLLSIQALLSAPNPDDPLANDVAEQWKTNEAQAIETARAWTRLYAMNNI

**Q.** Which inhibition does the source give for `COc1ccc(-c2cc3nc(C)cc(N4CC(C)CC(C)C4)n3n2)cc1` (configuration not stated) here?
**A.** inactive: 10.5%

**Q.** How did the inhibition turn out when `COc1ccc(-n2nc(C(=O)NCC(=O)Nc3ccccn3)c3ccccc3c2=O)cc1` was run?
**A.** inconclusive: 49.3%

**Q.** For `CC(=O)N1c2ccc(S(=O)(=O)NCC3CCC(C(=O)N4CCCC(C)C4)CC3)cc2CC1C` (configuration not stated), which inhibition is on record?
**A.** inactive: 5.1%

**Q.** How did the inhibition turn out when `CCOC(=O)c1c(-c2ccccc2)oc2ccc(OCC(O)CN(C)C)cc12` (configuration not stated) was run?
**A.** active: 46.6%

**Q.** `O=C(Cn1cc([N+](=O)[O-])cn1)N1CCc2ccccc21` was tested. Which inhibition did it give?
**A.** inactive: 5.7%

**Q.** With `CC(C)CC1C(C#N)=C(N)SC(N)=C1C#N` as the compound, how does the inhibition read?
**A.** inconclusive: 49.9%

**Q.** How did the inhibition turn out when `COc1ccccc1-c1sc2cc3c(cc2c1-c1ccc(OCCN2CCCCC2)cc1)OCO3` was run?
**A.** active: 77.3%

**Q.** For `Cc1ccc2c(c1)C(c1ccccc1)N(C(=O)C(C)C)CC(=O)N2` (configuration not stated), which inhibition is on record?
**A.** inconclusive: 61.7%

**Q.** Which inhibition does the source give for `CC1(C)Cc2c(c(N3CCCC3)nc3sc(C(=O)Nc4ccccc4)c(N)c23)CO1` here?
**A.** inconclusive: 70%

**Q.** Which inhibition does the source give for `Cc1ccc(-c2cc(-c3ccccc3)c(C#N)c(Br)n2)cc1` here?
**A.** inconclusive: 71.9%

**Q.** With `O=c1[nH]c(S)nc2sc3c(c12)CCCC3` as the compound, how does the inhibition read?
**A.** inconclusive: 76.3%

**Q.** `CC(C(=O)NC1CCCC1)N(C(=O)c1snc(C(N)=O)c1N)c1ccc2c(c1)OCCO2` (configuration not stated) was tested. Which inhibition did it give?
**A.** active: 72.2%

**Q.** `O=C(Nc1ccc(Cl)cc1)Nc1ccc2c(c1)N1CCN=C1S2` was tested. Which inhibition did it give?
**A.** inactive: 12.3%

**Q.** With `Cc1ccc(N2C(=O)CC(Sc3cccs3)C2=O)cc1` (configuration not stated) as the compound, how does the inhibition read?
**A.** inconclusive: 85.7%

**Q.** For `Cn1c(=O)c2c(nc(N3CCc4ccccc4C3)n2Cc2ccc(Br)cc2)n(C)c1=O`, which inhibition is on record?
**A.** inconclusive: 69.2%

**Q.** With `COc1cc(-c2nc3c(c(C)nn3-c3ccccc3)c3cc(OC)c(OC)cc23)ccc1O` as the compound, how does the inhibition read?
**A.** inconclusive: 87.2%

**Q.** How did the inhibition turn out when `Clc1ccc2nc(N3CCNCC3)nc(-c3ccccc3)c2c1` was run?
**A.** inconclusive: 61.6%

**Q.** How did the inhibition turn out when `CCOC(=O)c1c(C)[nH]c(=S)c(C#N)c1-c1ccc(OC)cc1` was run?
**A.** inconclusive: 49.2%

**Q.** For `COc1cc(OC)cc(-c2c(-c3cccs3)c3cc(-c4ccc(OC)c(F)c4)ccc3n2C)c1`, which inhibition is on record?
**A.** inconclusive: 79.1%

**Q.** With `CC(=O)N1CCN(c2ccc(NCc3ccc4c(c3)OCO4)cc2)CC1` as the compound, how does the inhibition read?
**A.** inactive: -3.7%

**Q.** For `CCN(Cc1ccccc1)C(=O)c1nn(-c2ccc(OC)cc2)c(=O)c2c1c1ccccc1n2C`, which inhibition is on record?
**A.** active: 45.2%

**Q.** How did the inhibition turn out when `COc1ccc(Cl)cc1-c1n[nH]c(=S)o1` was run?
**A.** inconclusive: 82.4%

**Q.** For `CCn1c(=NC(=O)c2cccc(N3C(=O)CCC3=O)c2)sc2c(OC)ccc(OC)c21`, which inhibition is on record?
**A.** inconclusive: 84.5%

**Q.** With `O=c1c2cc(Cl)ccc2[nH]c(=S)n1Cc1cccs1` as the compound, how does the inhibition read?
**A.** inconclusive: 83.4%

**Q.** Which inhibition does the source give for `CCc1cc(=O)oc2cc(C)cc(O)c12` here?
**A.** inconclusive: 51.5%

**Q.** For `CC1(C)Cc2c(sc(NC(=O)COc3ccc(Cl)cc3Cl)c2C(N)=O)C(C)(C)N1`, which inhibition is on record?
**A.** active: 73.8%

**Q.** How did the inhibition turn out when `Cc1ccc(-n2c(SCC(=O)Nc3cccc(S(=O)(=O)NC4=NCCCCC4)c3)nc3ccccc3c2=O)cc1` was run?
**A.** inconclusive: 91.1%

**Q.** `CCOC(=O)c1ccc(NC(=O)c2nc(SC)ncc2Cl)cc1` was tested. Which inhibition did it give?
**A.** inactive: -5.4%

**Q.** Which inhibition does the source give for `N#CC1=C(O)C(c2ccccc2)n2c1nc(=O)c1ccccc12` (configuration not stated) here?
**A.** inconclusive: 88.3%

**Q.** With `CC(C)c1nc(=S)c2ccccc2[nH]1` as the compound, how does the inhibition read?
**A.** inconclusive: 53.6%

**Q.** With `CCN(CC)C(=O)[C@H]1CC(CC(=O)NCCC2=CCCCC2)C(=O)N2CCc3c([nH]c4ccccc34)[C@]12C` (some centres not stated) as the compound, how does the inhibition read?
**A.** inconclusive: 75.6%

**Q.** With `CCOC(=O)Cc1csc(NC(=O)c2csc(C)c2)n1` as the compound, how does the inhibition read?
**A.** inactive: 5.2%

**Q.** For `COc1cccc(NC(=O)CSc2nnc3ccc(-c4ccccn4)nn23)c1`, which inhibition is on record?
**A.** inconclusive: 83.3%

**Q.** `c1ccc(CCCCN2C(Nc3ccccc3)=NC[C@@H]2Cc2ccccc2)cc1` was tested. Which inhibition did it give?
**A.** active: 48.8%

**Q.** `Cc1cc(Nc2ccccc2)nn1C(=O)c1ccccc1` was tested. Which inhibition did it give?
**A.** inconclusive: 66.8%

**Q.** `COC(=O)/C=C/c1ccc(OC(=O)c2ccncc2)cc1` was tested. Which inhibition did it give?
**A.** inactive: -6.5%

**Q.** How did the inhibition turn out when `Cc1cc(-c2ccc(Cl)cc2Cl)c(C#N)c(=O)[nH]1` was run?
**A.** inconclusive: 51%

**Q.** How did the inhibition turn out when `CCOC(=O)Cc1c(C)c2c(O)cc(O)cc2oc1=O` was run?
**A.** inconclusive: 66.6%

**Q.** For `CCCOc1ccc(C(=O)CCNC(Cc2c[nH]c3ccccc23)C(=O)O)cc1` (configuration not stated), which inhibition is on record?
**A.** inactive: 0.1%

**Q.** How did the inhibition turn out when `c1ccc(Cc2nnc(Sc3ccccc3)c3ccccc23)cc1` was run?
**A.** inconclusive: 82.6%

**Q.** For `CCOCCCNC(=O)C(NC(=O)c1ccc(NC(C)=O)cc1)c1ccccc1` (configuration not stated), which inhibition is on record?
**A.** inactive: -7.7%

**Q.** `CCOc1ccc(NC(=S)N=Nc2c(O)[nH]c3ccccc23)cc1` was tested. Which inhibition did it give?
**A.** active: 61.1%

**Q.** Which inhibition does the source give for `Cc1cccc(C)c1NC(=O)COC(=O)c1cc[n+]([O-])cc1` here?
**A.** inactive: -5.6%

**Q.** For `CCOc1ccc(-n2nc3c(=S)[nH]nc(C)c3c2C)cc1`, which inhibition is on record?
**A.** inconclusive: 51.1%

**Q.** How did the inhibition turn out when `Cc1onc(-c2c(F)cccc2Cl)c1C(=O)Nc1nnc(C(F)(F)F)s1` was run?
**A.** inconclusive: 49.4%

**Q.** For `CC(=O)C1=C(C)NC(SCC(=O)c2ccc(F)cc2)=C(C#N)C1CC(C)C` (configuration not stated), which inhibition is on record?
**A.** inconclusive: 82.9%

**Q.** Which inhibition does the source give for `Cc1ccc(C(C(=O)NCC2CCCO2)N(C(=O)c2snc(C(N)=O)c2N)c2ccc3c(c2)OCCO3)cc1` (configuration not stated) here?
**A.** active: 56%

**Q.** Which inhibition does the source give for `CCn1c2ccccc2c2nc3ccccc3nc21` here?
**A.** active: 66.5%

**Q.** `CCOC(=O)N1CCC(NC(=O)Cn2cc3c(n2)CCCC3)CC1` was tested. Which inhibition did it give?
**A.** inconclusive: 71.1%

**Q.** `O=S(=O)(c1ccc(NC(=S)NN=C(C2CC2)C2CC2)cc1)N1CCOCC1` was tested. Which inhibition did it give?
**A.** active: 45.9%

**Q.** How did the inhibition turn out when `CS(=O)(=O)N1CCc2cc(C(=O)OCC(=O)c3ccccc3)ccc21` was run?
**A.** inactive: 3.9%

**Q.** `C=CCSc1nc(-c2ccccc2)c2cc(Cl)ccc2n1` was tested. Which inhibition did it give?
**A.** inconclusive: 59.4%

**Q.** For `COc1ccc2sc(-c3ccc(S(C)(=O)=O)cc3)c(-c3ccc4c(c3)OCCO4)c2c1`, which inhibition is on record?
**A.** inconclusive: 84.7%

**Q.** With `CSc1nc(N2CCOCC2)c2c(c1C#N)CCCCC2` as the compound, how does the inhibition read?
**A.** active: 52.6%

**Q.** How did the inhibition turn out when `COc1ccc(CCNc2oc(-c3ccco3)nc2C#N)cc1` was run?
**A.** inactive: 5.9%

**Q.** `CCCCC1=CC2=C(c3ccco3)C(=O)C(C)(OC(=O)c3ccc(OC)cc3)C(=O)C2=CN1C1CCCCC1` (configuration not stated) was tested. Which inhibition did it give?
**A.** inconclusive: 55.1%

**Q.** For `Cc1ccc(S(=O)(=O)/N=C(\N)Nc2nc(C)c3cc(C)c(C)cc3n2)cc1`, which inhibition is on record?
**A.** inconclusive: 52.9%
